In patent publication US4540708A, “Sulfenyl carbamate derivatives and insecticidal compositions containing the same” (priority 1982, dated 1985):
For some of these results: At least one read-out could not be matched to a standard name with certainty. For some of these results: At least one structure is not confirmed: it was looked up by name or label, or the drawing left a doubt.

Legend:
[1] = test system: southern root-knot nematode (Meloidogyne incognita); test: Test Example 3: formation of nodules on tomato roots in soil contaminated with southern root-knot nematode larvae, one month; format: in vivo
[2] = test system: mites, eelworms and other agricultural and forestry noxious insects and household noxious insects; details: known compounds, background; cited from earlier work
[3] = granules (20% compound) applied 10 Kg/10a
[4] = granules (20% compound) applied 25 Kg/10a
[5] = granules (20% compound) applied 50 Kg/10a

SMILES | Degree of Formation of Nodules [1, 3] | Degree of Formation of Nodules [1, 4] | Degree of Formation of Nodules [1, 5] | insecticidal activity (in words) [2]
COC(=O)CCN(CCCCCOc1ccccc1)SN(C)C(=O)Oc1cccc2c1OC(C)(C)C2 [Example 15] | 2 (25-49%) | 1 (1-24%) | 0 (0%) | 
CCOC(=O)CN(CCCOC)SN(C)C(=O)Oc1cccc2c1OC(C)(C)C2 [Example 6] | 3 (50-74%) | 1 (1-24%) | 0 (0%) | 
COC(=O)CCN(CCOC(C)C)SN(C)C(=O)ON=C(C)SC [Example 21] | 4 (75-100%) | 2 (25-49%) | 1 (1-24%) | 
COCCN(CCC(=O)OC)SN(C)C(=O)ON=C(C)SC [Example 3, S-methyl N-[{N-methyl-N-(N-methoxyethyl-N-methoxycarbonylethylaminosulfenyl)carbamoyl}oxy]-thioacetimidate] | 2 (25-49%) | 1 (1-24%) | 0 (0%) | 
COCCN(CCC#N)SN(C)C(=O)ON=C(C)SC [Example 17] | 4 (75-100%) | 3 (50-74%) | 2 (25-49%) | 
CCOCCN(CCC(=O)OC)SN(C)C(=O)Oc1cccc2c1OC(C)(C)C2 [Example 8] | 3 (50-74%) | 1 (1-24%) | 0 (0%) | 
COC(=O)CCN(CCOC(C)C)SN(C)C(=O)Oc1cccc2c1OC(C)(C)C2 [Example 9] | 3 (50-74%) | 1 (1-24%) | 0 (0%) | 
CCOC(=O)CN(CCOC)SN(C)C(=O)ON=C(C)SC [Example 19] | 3 (50-74%) | 2 (25-49%) | 1 (1-24%) | 
COC(=O)CCN(CCOCc1ccccc1)SN(C)C(=O)Oc1cccc2c1OC(C)(C)C2 [Example 13] | 3 (50-74%) | 1 (1-24%) | 0 (0%) | 
CNC(=O)ON=C(C)SC [Control*, S--methyl N--[(methylcarbamoyl)oxy]thioacetimidate] |  |  |  | high insecticidal activity
COC(=O)CCN(CCCOc1ccccc1)SN(C)C(=O)ON=C(C)SC [Example 20] | 3 (50-74%) | 2 (25-49%) | 1 (1-24%) | 
COCCN(CC(=O)OC)SN(C)C(=O)Oc1cccc2c1OC(C)(C)C2 [Example 4] | 2 (25-49%) | 1 (1-24%) | 0 (0%) | 
COC(=O)CCN(CCCOc1ccccc1)SN(C)C(=O)Oc1cccc2c1OC(C)(C)C2 [Example 7] | 2 (25-49%) | 1 (1-24%) | 0 (0%) | 
COC(=O)CCN(CCOC1CCCCC1)SN(C)C(=O)Oc1cccc2c1OC(C)(C)C2 [Example 10] | 3 (50-74%) | 1 (1-24%) | 0 (0%) | 
COC(=O)CCN(CCOC1CCCCC1)SN(C)C(=O)ON=C(C)SC [Example 22] | 3 (50-74%) | 2 (25-49%) | 1 (1-24%) | 
COCCCN(CCC(=O)OC)SN(C)C(=O)Oc1cccc2c1OC(C)(C)C2 [Example 1, 2,3-dihydro-2,2-dimethylbenzofuran-7-yl N-[N-(3-methoxypropyl)-N-methoxycarbonylethylaminosulfenyl]N-methyl carbamate] | 2 (25-49%) | 1 (1-24%) | 0 (0%) | 
COCCN(CC#N)SN(C)C(=O)Oc1cccc2c1OC(C)(C)C2 [Example 5] | 2 (25-49%) | 1 (1-24%) | 0 (0%) | 
CC(C)OCCCN(CCC#N)SN(C)C(=O)Oc1cccc2c1OC(C)(C)C2 [Example 11] | 2 (25-49%) | 1 (1-24%) | 0 (0%) | 
COC(=O)CCN(CCCCOc1ccccc1)SN(C)C(=O)ON=C(C)SC [Example 25] | 4 (75-100%) | 3 (50-74%) | 1 (1-24%) | 
CSC(C)=NOC(=O)N(C)SN(CCC#N)CCCOC(C)C [Example 23] | 4 (75-100%) | 2 (25-49%) | 1 (1-24%) | 
COCCN(CCC#N)SN(C)C(=O)Oc1cccc2c1OC(C)(C)C2 [Example 2, 2,3-dihydro-2,2-dimethylbenzofuran-7-yl N-[N-(2-methoxyethyl)-N-cyanoethylaminosulfenyl]N-methyl-carbamate] | 2 (25-49%) | 1 (1-24%) | 0 (0%) | 
CCCCOC(=O)CCN(CCOC)SN(C)C(=O)Oc1cccc2c1OC(C)(C)C2 [Example 12] | 3 (50-74%) | 1 (1-24%) | 0 (0%) | 
COCCN(CC#N)SN(C)C(=O)ON=C(C)SC [Example 18] | 4 (75-100%) | 3 (50-74%) | 2 (25-49%) | 
CCCCOC(=O)CCN(CCOC)SN(C)C(=O)ON=C(C)SC [Example 24] | 4 (75-100%) | 2 (25-49%) | 1 (1-24%) | 
COCCCN(CCC(=O)OC)SN(C)C(=O)ON=C(C)SC [Example 16] | 3 (50-74%) | 2 (25-49%) | 1 (1-24%) | 
COC(=O)CCN(CCCCOc1ccccc1)SN(C)C(=O)Oc1cccc2c1OC(C)(C)C2 [Example 14] | 2 (25-49%) | 1 (1-24%) | 0 (0%) | 
